# Measured values: the supplement of paper PMC8728848
# The other results are listed elsewhere or left out.
# What was measured:
# Experiment in all cases: glycan array binding signal (z-score within array); higher = stronger binding
# Settings in all cases: glycan notation: IUPAC condensed, linker removed
# [1] = molecular target: Neu5Ac(a2-3)Gal(b1-4)GlcNAc(b1-2)[Neu5Ac(a2-3)Gal(b1-4)GlcNAc(b1-4)]Man(a1-3)[GlcNAc(b1-4)][Neu5Ac(a2-3)Gal(b1-4)GlcNAc(b1-2)[Neu5Ac(a2-3)Gal(b1-4)GlcNAc(b1-6)]Man(a1-6)]Man(b1-4)GlcNAc(b1-4)GlcNAc
# How it was run: (§1)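 Glycan array data were curated from 3228 arrays in the Consortium for Functional Glycomics database and kept only where the protein sequence was available. Glycan names were converted to IUPAC-condensed notation, and columns mapping to the same glycan were averaged. The binding signal is a within-array Z-score, averaged across arrays of the same protein sequence at different concentrations or buffers and across linkers. Negative Z-scores can be read as non-binding.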
# [2] = molecular target: Neu5Ac(a2-3)Gal(b1-4)GlcNAc(b1-2)[Neu5Ac(a2-3)Gal(b1-4)GlcNAc(b1-4)]Man(a1-3)[GlcNAc(b1-4)][Neu5Ac(a2-3)Gal(b1-4)GlcNAc(b1-4)Man(a1-6)]Man(b1-4)GlcNAc(b1-4)GlcNAc
# How it was run: as §1
# [3] = molecular target: Neu5Ac(a2-3)Gal(b1-4)GlcNAc(b1-2)[Neu5Ac(a2-3)Gal(b1-4)GlcNAc(b1-6)]Man(a1-6)[Neu5Ac(a2-3)Gal(b1-4)GlcNAc(b1-2)Man(a1-3)][GlcNAc(b1-4)]Man(b1-4)GlcNAc(b1-4)GlcNAc
# How it was run: as §1
# [4] = molecular target: Neu5Ac(a2-3)Gal(b1-4)GlcNAc(b1-3)Gal
# How it was run: as §1
# [5] = molecular target: Neu5Ac(a2-3)Gal(b1-4)GlcNAc(b1-3)Gal(b1-3)GlcNAc
# How it was run: as §1
# [6] = molecular target: Neu5Ac(a2-3)Gal(b1-4)GlcNAc(b1-3)Gal(b1-4)GlcNAc
# How it was run: as §1
# [7] = molecular target: Neu5Ac(a2-3)Gal(b1-4)GlcNAc(b1-3)Gal(b1-4)GlcNAc(b1-2)Man(a1-3)[Neu5Ac(a2-3)Gal(b1-4)GlcNAc(b1-3)Gal(b1-4)GlcNAc(b1-2)Man(a1-6)]Man(b1-4)GlcNAc(b1-4)GlcNAc
# How it was run: as §1
# [8] = molecular target: Neu5Ac(a2-3)Gal(b1-4)GlcNAc(b1-3)Gal(b1-4)GlcNAc(b1-3)Gal(b1-4)GlcNAc
# How it was run: as §1
# [9] = molecular target: Neu5Ac(a2-3)Gal(b1-4)GlcNAc(b1-3)Gal(b1-4)GlcNAc(b1-3)Gal(b1-4)GlcNAc(b1-2)Man(a1-3)[Neu5Ac(a2-3)Gal(b1-4)GlcNAc(b1-3)Gal(b1-4)GlcNAc(b1-3)Gal(b1-4)GlcNAc(b1-2)Man(a1-6)]GalNAc
# How it was run: as §1
# [10] = molecular target: Neu5Ac(a2-3)Gal(b1-4)GlcNAc(b1-3)Gal(b1-4)GlcNAc(b1-3)GalNAc
# How it was run: as §1
# [11] = molecular target: Neu5Ac(a2-3)Gal(b1-4)GlcNAc(b1-3)Gal(b1-4)GlcNAc(b1-3)[Neu5Ac(a2-3)Gal(b1-4)GlcNAc(b1-3)Gal(b1-4)GlcNAc(b1-6)]GalNAc
# How it was run: as §1
# [12] = molecular target: Neu5Ac(a2-3)Gal(b1-4)GlcNAc(b1-3)Gal(b1-4)GlcNAc(b1-6)[Gal(b1-3)]GalNAc
# How it was run: as §1
# [13] = molecular target: Neu5Ac(a2-3)Gal(b1-4)GlcNAc(b1-3)Gal(b1-4)[Fuc(a1-3)]GlcNAc
# How it was run: as §1
# [14] = molecular target: Neu5Ac(a2-3)Gal(b1-4)GlcNAc(b1-3)GalNAc
# How it was run: as §1
# [15] = molecular target: Neu5Ac(a2-3)Gal(b1-4)GlcNAc(b1-3)[Neu5Ac(a2-3)Gal(b1-4)GlcNAc(b1-6)]GalNAc
# How it was run: as §1
# [16] = molecular target: Neu5Ac(a2-3)Gal(b1-4)GlcNAc(b1-6)GalNAc
# How it was run: as §1
# [17] = molecular target: Neu5Ac(a2-3)Gal(b1-4)GlcNAc(b1-6)[Gal(b1-3)]GalNAc
# How it was run: as §1
# [18] = molecular target: Neu5Ac(a2-3)Gal(b1-4)GlcNAc(b1-6)[Neu5Ac(a2-3)Gal(b1-3)]GalNAc
# How it was run: as §1
# [19] = molecular target: Neu5Ac(a2-3)Gal(b1-4)GlcNAc6S
# How it was run: as §1
# [20] = molecular target: Neu5Ac(a2-3)Gal(b1-4)[Fuc(a1-3)]GlcNAc
# How it was run: as §1
# [21] = molecular target: Neu5Ac(a2-3)Gal(b1-4)[Fuc(a1-3)]GlcNAc(b1-2)Man
# How it was run: as §1
# [22] = molecular target: Neu5Ac(a2-3)Gal(b1-4)[Fuc(a1-3)]GlcNAc(b1-3)Gal
# How it was run: as §1
# [23] = molecular target: Neu5Ac(a2-3)Gal(b1-4)[Fuc(a1-3)]GlcNAc(b1-3)Gal(b1-4)GlcNAc
# How it was run: as §1
# [24] = molecular target: Neu5Ac(a2-3)Gal(b1-4)[Fuc(a1-3)]GlcNAc(b1-3)Gal(b1-4)[Fuc(a1-3)]GlcNAc(b1-3)Gal(b1-4)[Fuc(a1-3)]GlcNAc
# How it was run: as §1
# [25] = molecular target: Neu5Ac(a2-3)Gal(b1-4)[Fuc(a1-3)]GlcNAc(b1-3)GalNAc
# How it was run: as §1
# [26] = molecular target: Neu5Ac(a2-3)Gal(b1-4)[Fuc(a1-3)]GlcNAc(b1-6)[Gal(b1-3)]GalNAc
# How it was run: as §1
# [27] = molecular target: Neu5Ac(a2-3)Gal(b1-4)[Fuc(a1-3)]GlcNAc(b1-6)[Neu5Ac(a2-3)Gal(b1-3)]GalNAc
# How it was run: as §1
# [28] = molecular target: Neu5Ac(a2-3)Gal(b1-4)[Fuc(a1-3)]GlcNAc6S
# How it was run: as §1
# [29] = molecular target: Neu5Ac(a2-3)Gal6S(b1-4)GlcNAc
# How it was run: as §1
# [30] = molecular target: Neu5Ac(a2-3)Gal6S(b1-4)[Fuc(a1-3)]GlcNAc
# How it was run: as §1
# [31] = molecular target: Neu5Ac(a2-3)GalNAc
# How it was run: as §1
# [32] = molecular target: Neu5Ac(a2-3)GalNAc(b1-4)GlcNAc
# How it was run: as §1
# [33] = molecular target: Neu5Ac(a2-3)[GalNAc(b1-4)]Gal(b1-4)Glc
# How it was run: as §1
# [34] = molecular target: Neu5Ac(a2-3)[GalNAc(b1-4)]Gal(b1-4)GlcNAc
# How it was run: as §1
# [35] = molecular target: Neu5Ac(a2-3)[GalNAc(b1-4)]Gal(b1-4)GlcNAc(b1-3)GalNAc
# How it was run: as §1
# [36] = molecular target: Neu5Ac(a2-3)[Neu5Ac(a2-6)]GalNAc
# How it was run: as §1
# [37] = molecular target: Neu5Ac(a2-6)Gal
# How it was run: as §1
binder,measurement,setting,value
Epa13 (Candida glabrata) (protein) MGSSHHHHHHSSGLVPRGSHMASDSSENGYAHGCSPSIRAKLKPGLSMEIYSYALRPTDDHCWDSAYLDPMFPRTGYLTHKLLGKAEGIIGPLNFLAKNPACIPAVSTLPLAFHFPKPFTITNFTMLLYGYLSPKKTGKYTFKLLADDLLLMNFGADNAFDCCSHDATKDNIGEYVAYSVWPGVNKNVTVYLESGIYYPLRLFFNNRDAIAQLDFAYYFNDSPIRQTDFSGMFFSIPDSVKCPANI,glycan array binding signal (z-score),[1],-0.406
same,glycan array binding signal (z-score),[2],-0.123
same,glycan array binding signal (z-score),[3],-0.431
same,glycan array binding signal (z-score),[4],-0.31
same,glycan array binding signal (z-score),[5],-0.222
same,glycan array binding signal (z-score),[6],-0.095
same,glycan array binding signal (z-score),[7],0.632
same,glycan array binding signal (z-score),[8],-0.21
same,glycan array binding signal (z-score),[9],0.821
same,glycan array binding signal (z-score),[10],0.208
same,glycan array binding signal (z-score),[11],-0.167
same,glycan array binding signal (z-score),[12],0.018
same,glycan array binding signal (z-score),[13],-0.169
same,glycan array binding signal (z-score),[14],-0.077
same,glycan array binding signal (z-score),[15],-0.089
same,glycan array binding signal (z-score),[16],-0.147
same,glycan array binding signal (z-score),[17],0.015
same,glycan array binding signal (z-score),[18],-0.394
same,glycan array binding signal (z-score),[19],-0.255
same,glycan array binding signal (z-score),[20],-0.478
same,glycan array binding signal (z-score),[21],-0.233
same,glycan array binding signal (z-score),[22],-0.435
same,glycan array binding signal (z-score),[23],0.107
same,glycan array binding signal (z-score),[24],-0.295
same,glycan array binding signal (z-score),[25],0.426
same,glycan array binding signal (z-score),[26],1.06
same,glycan array binding signal (z-score),[27],0.889
same,glycan array binding signal (z-score),[28],-0.352
same,glycan array binding signal (z-score),[29],0.078
same,glycan array binding signal (z-score),[30],-0.54
same,glycan array binding signal (z-score),[31],0.065
same,glycan array binding signal (z-score),[32],-0.046
same,glycan array binding signal (z-score),[33],-0.377
same,glycan array binding signal (z-score),[34],-0.468
same,glycan array binding signal (z-score),[35],0.03
same,glycan array binding signal (z-score),[36],-0.298
same,glycan array binding signal (z-score),[37],-0.413
